In the supplement of paper PMC3334620:
The full ranking holds about 33,000 sequences; the median of “E-score (-0.5 to 0.5)” is about -0.013, and the highest 2% start at about 0.3. The list shows a part of the results.

These sequences were tested against T1, Msn1 (UniProt P22148) (assay: PBM E-score (8-mer binding enrichment) (E-score (-0.5 to 0.5)); higher = stronger / more preferred TF binding; most listed sequences are background and not binding sites). Conditions: protein concentration: 200 nM; construct: GST-full length.
T1 sequence: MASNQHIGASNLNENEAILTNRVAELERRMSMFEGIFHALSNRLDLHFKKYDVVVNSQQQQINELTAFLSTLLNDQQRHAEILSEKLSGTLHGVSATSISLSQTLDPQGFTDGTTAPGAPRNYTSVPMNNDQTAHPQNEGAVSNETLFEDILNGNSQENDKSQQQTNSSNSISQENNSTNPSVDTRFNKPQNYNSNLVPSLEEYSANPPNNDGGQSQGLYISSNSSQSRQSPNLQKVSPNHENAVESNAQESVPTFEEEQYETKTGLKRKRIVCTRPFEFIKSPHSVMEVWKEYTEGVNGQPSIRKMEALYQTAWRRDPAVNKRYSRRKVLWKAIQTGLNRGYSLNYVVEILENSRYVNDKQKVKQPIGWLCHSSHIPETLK
How it was run: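 Full-length yeast transcription factors or their DNA-binding domains, GST-tagged and expressed with PURExpress, were applied at about 100-200 nM to universal all-10-mer Agilent arrays. These arrays had been made double-stranded by primer extension on fresh or once-stripped slides. Detection used fluorescent anti-GST, normalisation used masliner, and E-scores for ungapped eight-base words pooled with reverse complements came from the Universal PBM Analysis Suite.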

Row | Sequence | PBM E-score
1 | CGACTTCA | 0.0948
2 | ACTTTTGA | 0.208
3 | ACCATCGC | 0.076
4 | GGAGAGTA | -0.192
5 | CACTTATA | 0.0245
6 | TCTTAGAA | 0.297
7 | CTGCCAGC | -0.155
8 | CCAGAGTA | -0.142
9 | ACTGCAAG | -0.0394
10 | AATAGCCG | 0.00296
11 | CATTGTTC | -0.00315
12 | GCTATTGA | -0.0472
13 | AAAGTGCC | 0.00184
14 | ACAGTGCA | -0.0342
15 | CACGGATA | 0.173
16 | ACTTCATA | -0.0395
17 | CTGAGGTA | -0.0788
18 | CACTAAGG | -0.017
19 | ACACATAT | 0.155
20 | CAATGACC | -0.0865
21 | GCGTGATA | -0.0404
22 | GCGTGTTA | -0.143
23 | AAACCGAA | -0.00034
24 | CCAAATTA | 0.193
25 | CCCTAACG | -0.00597

Row | Sequence | PBM E-score
26 | CCACTTTA | -0.0486
27 | AACTTTGC | -0.0347
28 | CGAGTTTA | 0.0699
29 | GTTGCTTA | -0.0221
30 | AACATCCG | 0.117
31 | ACTTTGCG | 0.0123
32 | ATGAGCAG | -0.0867
33 | ACCATCCG | -0.0648
34 | TCAGCTGA | 0.232
35 | ATGCCGGG | -0.0587
36 | CCTACACA | -0.00332
37 | ACCCATCG | -0.0746
38 | AATTATAC | 0.172
39 | AAAAGAGA | 0.0723
40 | AGACAACG | 0.134
41 | CGGATGAG | -0.138
42 | ACGGTAGA | -0.158
43 | ATTTGCCA | 0.0422
44 | AGATAACT | 0.0107
45 | TCTCACCA | -0.00173
46 | GCGGATCA | -0.116
47 | CATATGCC | 0.00819
48 | AAAATTTG | 0.16
49 | GGTGCGTA | -0.225
50 | ATGGTGTA | -0.117

Row | Sequence | PBM E-score
51 | GGAGCACA | -0.0444
52 | AGCGCTCC | -0.0666
53 | ACCGCAAT | 0.113
54 | CATCTTGC | 0.0746
55 | CCACAGCA | -0.0336
56 | ATGCTAAA | 0.131
57 | CAAAAATC | 0.163
58 | AGCGTAAA | 0.0473
59 | AACACGCG | -0.0423
60 | GTAACCGA | -0.00145
61 | ATGAAGTG | -0.112
62 | CTGAGAGA | -0.0585
63 | ATCAGTGC | 0.0894
64 | ATGTACGA | 0.215
65 | CAGGAACG | 0.0662
66 | AAAAGCGT | 0.0619
67 | AAGCTATC | 0.0462
68 | GCCATGAC | 0.00759
69 | GTAATTCA | 0.052
70 | ACCTCCAG | -0.0741
71 | CGACAGGC | -0.152
72 | ACGGGTAG | -0.0737
73 | AGGCCCCC | -0.403
74 | TAAGTCGA | 0.0435
75 | GTTCGATA | 0.1

Row | Sequence | PBM E-score
76 | AATCCCCG | -0.0127
77 | ATCCGGGC | -0.0537
78 | AAAGGTCC | 0.133
79 | AGAGAGTG | -0.169
80 | ACCTTGGA | -0.117
81 | GCTTTTTA | 0.0345
82 | ACTTATGA | 0.187
83 | CTGGATAA | -0.0534
84 | ACGTGAGA | -0.163
85 | CTAGTGTC | 0.148
86 | AATTAATT | 0.168
87 | AGGACGTG | 0.303
88 | GTTCTCGA | 0.0715
89 | AGTTCTAA | 0.165
90 | AGTGACTC | -0.126
91 | ACCACGCA | -0.139
92 | CATACGCC | -0.00717
93 | CCGGAAGA | 0.0498
94 | AGTAAGGC | -0.0642
95 | GAGTTGGC | -0.155
96 | CCCCAATA | -0.122
97 | AAACCATC | 0.0969
98 | AACCGACG | 0.0303
99 | GGGCCAAA | -0.0172
100 | CGTTGATA | 0.189

Row | Sequence | PBM E-score
101 | GTTCCAGA | 0.102
102 | ATTCAATC | 0.122
103 | ACGTACAG | -0.0675
104 | ACGACGCG | 0.144
105 | GCAGCAGC | 0.0679
106 | GCACATCA | -0.0992
107 | AGGAGATG | -0.231
108 | TAGACTAA | -0.0893
109 | CACTGTGG | -0.0512
110 | GAAGGTCC | -0.055
111 | ATGGTTCG | 0.0816
112 | GGTCAATA | 0.026
113 | ACGTTACC | -0.153
114 | TGGGTTAA | -0.0198
115 | CCAGGGAA | -0.283
116 | GTGTCACA | 0.261
117 | CGATGGGA | -0.0516
118 | ACACCTGG | -0.0963
119 | CGCAACTC | 0.191
120 | GCGAGTCA | -0.125
121 | TAGCACCA | -0.122
122 | AACAAAAA | 0.15
123 | AGGTTAGG | -0.153
124 | ACCCAGGT | -0.312
125 | ACGGAAAT | 0.212

Row | Sequence | PBM E-score
126 | GAACGCAA | 0.104
127 | CTTGCGAA | 0.158
128 | ATCGTCGG | 0.0703
129 | ACTCGTTC | -0.0159
130 | ACTGCGTC | -0.0319
131 | ATGCCGCC | 0.0974
132 | CTTGCATC | -0.193
133 | AAAAGACC | 0.00338
134 | CATGCAAC | 0.0683
135 | CCAGCGAC | -0.143
136 | CTAATAAC | 0.222
137 | AGTATAGG | 0.0498
138 | ACTCTTTA | -0.0509
139 | GTGCGTGA | 0.137
140 | AATGCGTA | -0.0351
141 | CTCGCGCC | -0.167
142 | AGCGACTA | 0.0409
143 | ACATCCTA | 0.0184
144 | CAAGGCTA | 0.0109
145 | ATGTTCCG | 0.158
146 | AACCGGAT | 0.163
147 | ACAATTAG | 0.146
148 | CCCGCACC | -0.182
149 | GATCATCC | -0.161
150 | CACGTCCG | 0.0782

Row | Sequence | PBM E-score
151 | AGAGTTTA | 0.129
152 | AGAGACAT | 0.43
153 | AGTGACGA | 0.112
154 | CGGACGGA | -0.00604
155 | GGGGTTAA | -0.1
156 | AAACTGGT | 0.0799
157 | GACACTGA | 0.223
158 | CCTTGAAC | -0.122
159 | ACCAATCC | 0.00725
160 | GAGTGTAC | -0.199
161 | GTAGCACA | -0.172
162 | GGTAAGAC | 0.0472
163 | CTCAAATA | 0.00541
164 | ACAAGGCC | -0.137
165 | CTGATTTA | 0.0526
166 | AGCTGGAT | -0.163
167 | CTTATACA | 0.0393
168 | AGCGTACA | 0.0198
169 | ATCATGGG | -0.0733
170 | AGAAGTTA | -0.0397
171 | CCCCCGAG | -0.363
172 | AGGCCCGG | -0.194
